Reference: patent US20160213647A1, “COMPOSITIONS AND METHODS FOR INHIBITING VIRAL INFECTION” (priority 2015, published 2016)

Assays:
[1] = test system: SARS coronavirus - Strain Urbani; assay: microbe, parasite or virus in culture; type: cell-based; settings: Severe acute respiratory syndrome coronavirus
Hepatitis C virus = assay: microbe, parasite or virus in culture
[2] = test system: Rift Valley Fever Virus - Strain MP-12; assay: microbe, parasite or virus in culture; type: cell-based
[3] = test system: Dengue virus 2 - New Guinea C; assay: In vitro viral screen (Table 7), Vero 76; type: cell-based
[4] = test system: Respiratory Syncytial Virus - Strain A2; assay: microbe, parasite or virus in culture; type: cell-based; settings: human respiratory syncytial virus
[5] = test system: Tacaribe Virus - Strain TRVL 11573; assay: microbe, parasite or virus in culture; type: cell-based; settings: Mammarenavirus tacaribeense, Vero
Human herpes virus-6 = assay: organism not typed
[6] = test system: Measles Virus - Strain CC; assay: microbe, parasite or virus in culture; type: cell-based; settings: Measles morbillivirus
[7] = test system: Pichinde Virus - Strain An 4763; assay: microbe, parasite or virus in culture; type: cell-based; settings: Vero
[8] = test system: Punta Toro Virus - Adames Strain; assay: microbe, parasite or virus in culture; type: cell-based
[9] = test system: West Nile Virus - Strain Kerne 515, WN02; assay: In vitro viral screen (Table 7), Vero 76; type: cell-based
[10] = test system: Yellow Fever Virus - Strain 17D; assay: microbe, parasite or virus in culture; type: cell-based; settings: Vero
[11] = test system: all virus isolates tested (HIV-1); assay: microbe, parasite or virus in culture; type: cell-based; settings: Human immunodeficiency virus 1, PBMC
Hepatitis B virus = assay: microbe, parasite or virus in culture
[12] = Vero 76, read-out: EC50 (neutral red)
[13] = Vero 76, read-out: EC50 (visual)

NCC(=O)Nc1ccc(-n2nc(C(F)(F)F)cc2-c2ccc3c(ccc4ccccc43)c2)cc1 [AR-12, 2-amino-N-(4-(5-(phenanthren-2-yl)-3-(trifluoromethyl)-1H-pyrazol-1-yl)phenyl)acetamide]
EC50 [1, 12]: > 1.5 µg/mL
EC50 [1, 13]: 3.2 µg/mL (≈ 6.95 µM)
EC50 (Hepatitis C virus): 120 nM
EC90 (Hepatitis C virus): 190 nM
EC50 [2, 12]: > 100 µg/mL
EC50 [2, 13]: > 100 µg/mL
EC50 [3, 12]: 0.86 µg/mL (≈ 1.87 µM)
EC50 [3, 13]: 3.2 µg/mL (≈ 6.95 µM)
EC50 ([4]; MA104, read-out: EC50 (neutral red)): 3.1 µg/mL (≈ 6.73 µM)
EC50 ([4]; MA104, read-out: EC50 (visual)): 3.2 µg/mL (≈ 6.95 µM)
EC50 ([5]; read-out: EC50 (neutral red)): 0.86 µg/mL (≈ 1.87 µM)
EC50 ([5]; read-out: EC50 (visual)): 0.62 µg/mL (≈ 1.35 µM)
EC50 (Human herpes virus-6): > 480 nM
EC90 (Human herpes virus-6): > 480 nM
EC50 [6, 12]: 1.9 µg/mL (≈ 4.13 µM)
EC50 [6, 13]: 2.6 µg/mL (≈ 5.65 µM)
EC50 ([7]; read-out: EC50 (neutral red)): 2.2 µg/mL (≈ 4.78 µM)
EC50 ([7]; read-out: EC50 (visual)): 1.3 µg/mL (≈ 2.82 µM)
EC50 [8, 12]: 1 µg/mL (≈ 2.17 µM)
EC50 [8, 13]: 2.5 µg/mL (≈ 5.43 µM)
EC50 [9, 12]: 2.6 µg/mL (≈ 5.65 µM)
EC50 [9, 13]: 3.2 µg/mL (≈ 6.95 µM)
EC50 ([10]; read-out: EC50 (Neutral Red)): 0.28 µg/mL (≈ 0.608 µM)
EC50 ([10]; read-out: EC50 (visual)): 0.32 µg/mL (≈ 0.695 µM)
IC50 ([11]; read-out: IC50 range): 489 to 1020 nM
IC50 ([11]; read-out: average IC50 value): 812 nM
EC50 (Hepatitis B virus): 6650 nM
EC90 (Hepatitis B virus): 56800 nM

≈ marks a conversion by molar mass, not a printed value. Like-named read-outs stand apart in the source and are kept apart here.
